Test results reported in PubChem BioAssay AID686979 (National Center for Advancing Translational Sciences (NCATS), 2013).
“And” between values parts separate entries of the source, which are not always exact repeats. Equal entries are not always repeated. About 50,000 (12%) of roughly 420,000 compounds were called active. Inconclusive results, whose numbers are uncertain, are shown with a selection of clear calls. Calls follow the shape of the dose curve; as a rule, active = well fitted inhibition curve with a large enough effect; inconclusive = small, poorly fitted or top-dose-only effect; inactive = flat fitted curve, though single readings scatter. No potency is given beside an inconclusive call; the fits are too rough.

Test: qHTS for Inhibitors of human tyrosyl-DNA phosphodiesterase 1 (TDP1): qHTS in cells in presence of CPT; also: nearly all actives have a fitted effect of over 55% in size
Details: chicken DT40 Tdp1-/-;hTDP1 cells + 20 nM CPT, ATP luminescence, 48 h; activity change, negative = growth inhibition: at 46.2 µM (top of the series) unless noted
Method in brief: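 Cell growth measured by CellTiter-Glo luminescence after a minimum 48 h, 37 C compound exposure with 20 nM CPT in Tdp1-knockout DT40 cells stably expressing hTDP1, seeded 400/well; qHTS titration format.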
% is scaled to controls: 0 for no effect and ±100 for the full control effect; potency is read from the fitted curve at half-maximal effect; tags tell the direction and shape of the fitted curve.

| SMILES | Potency | activity change, negative = growth inhibition |
| --- | --- | --- |
| CCCCNC(=O)C12CCC(C)(C(=O)C1Br)C2(C)C (stereo unspecified) | inactive |  |
| COc1ccc(NS(=O)(=O)c2cc(NC(=O)c3ccccn3)ccc2OC)cc1Br | inconclusive [inhibitor, single point] |  |
| C[C@H](c1ccccc1)N1C[C@H](COCc2ccccc2)Oc2cc(N3CCC[C@H]3CO)ccc2S1(=O)=O | inconclusive [inhibitor, single point] |  |
| COc1ccc(/C=C(/C(=O)Nc2ccccc2C(=O)N2CCCC2)c2ccccc2)cc1 | inconclusive [inhibitor, single point] |  |
| O=C(COC(=O)c1cc(S(=O)(=O)N2CCCCC2)ccc1Cl)NC1CCCCC1 | inactive |  |
| CN(c1cccc(NC(=O)c2ccc(Cl)c(S(=O)(=O)N3CCOCC3)c2)c1)S(C)(=O)=O | inconclusive [inhibitor, single point] |  |
| Cc1ccc(S(=O)(=O)N(CC(=O)NC2CCCCCC2)c2ccccc2F)cc1 | inactive |  |
| COc1ccc(-n2cc(CN(C)C(C)c3ccncn3)c(-c3cccc(F)c3)n2)cc1 (stereo unspecified) | inconclusive [inhibitor, single point] |  |
| COc1cc(-c2cccc(OC)c2OC)cc2c1OCCN(Cc1cn[nH]c1-c1ccc(Cl)cc1)C2 | inconclusive [inhibitor, single point] |  |
| CN1CCN(S(=O)(=O)c2cccc(C(=O)Nc3cc(C(F)(F)F)ccc3N3CCCCC3)c2)CC1 | inconclusive [inhibitor, single point] |  |
| Cc1cc(O)c2c(c1)CC1C3CCC4CC(=O)CCC4(C)C3CC(=O)C21C (stereo unspecified) | active: 18.4 µM |  |
| CCn1nc(C)c(CNC(=O)C2CCC(=O)N(Cc3cccc(F)c3)C2)c1C (stereo unspecified) | inactive |  |
| c1ccc(Cn2cc(-c3cccnc3)cn2)cc1 | inconclusive [inhibitor, single point] |  |
| O=C(C[n+]1cccc(NC(=O)c2ccccc2)c1)c1ccc(NC(=O)c2ccccc2)cc1 | active: 23.1 µM |  |
| COc1cccc(NC(=O)c2ccccc2OCc2c(C)noc2C)c1 | inconclusive [inhibitor, single point] |  |
| COc1ccc(NC2CCCN(C(=O)c3cc4ncccn4n3)C2)cc1 (stereo unspecified) | inactive |  |
| CCCCSc1cc(C)nc(N)n1 | inactive |  |
| Cc1cc(NC(=O)COC(=O)CCn2c(C)csc2=O)c([N+](=O)[O-])cc1C | inactive |  |
| CCCNC(=O)Cn1nc(C)c2c(C)n(-c3ccccc3)nc2c1=O | inactive |  |
| Cc1nn(-c2ccccc2)c(C)c1/C=N/NC(=O)c1cc(-c2cccc3ccccc23)n[nH]1 | inconclusive [inhibitor, single point] |  |
| Cc1ccc2c(CN3CCC(C(N)=O)CC3)cc(=O)oc2c1C | inactive |  |
| Cc1ccc(NC(=S)N(CCN(C)C)Cc2cccs2)cc1C | inconclusive [inhibitor, single point] |  |
| Cc1ccc(C)c2sc(NC(=O)c3nc4ccccc4s3)nc12 | inconclusive [inhibitor, single point] |  |
| COc1ccc(C2(O)CCN(CC(=O)Nc3nc(-c4ccccc4)cs3)CC2)cc1 | inconclusive [inhibitor, single point] |  |
| CCC(NC(=S)NCc1ccc(F)cc1)c1ccc(C(C)C)cc1 (stereo unspecified) | inconclusive [inhibitor, single point] |  |

| SMILES | Potency | activity change, negative = growth inhibition |
| --- | --- | --- |
| COc1ccc(CNc2ncncc2-c2ccoc2)c(OC)c1 | active: 23.1 µM |  |
| Cc1nc2ccc(NC(=S)N3CCOCC3)cc2nc1C | inactive |  |
| CCCS(=O)(=O)NC(=O)C1(C)CCCN(C(=O)c2cc(OC)ccc2Br)C1 (stereo unspecified) | inactive |  |
| CCc1c(C)nc2ncnn2c1N1CCCC(C(=O)NCc2cccs2)C1 (stereo unspecified) | inconclusive [inhibitor, single point] |  |
| CC1=C(C(=O)N2CCOCC2)CC(CC(=O)NCCCCc2ccccc2)C(=O)N1CCC1=CCCCC1 (stereo unspecified) | inconclusive [inhibitor, single point] |  |
| COc1cc(NS(=O)(=O)c2ccc(C)c(C)c2)c(OC)cc1Cl | active: 18.4 µM |  |
| COc1cc(OC)c(NC(=O)CSc2nc3ccncc3[nH]2)cc1Cl | active: 6.51 µM |  |
| CC(=O)N1CCN(c2ccc(Oc3nc(-c4ccccc4)nc4ccccc34)cc2)CC1 | inactive |  |
| CCOC1=C2[C@H](c3ccc(CC)cc3)N(S(=O)(=O)c3ccc(C)cc3)C[C@H]2n2c(=O)n(-c3ccccc3)c(=O)n2C1 | inactive |  |
| COc1ccccc1C(=O)NC(CCSC)C(=O)NNC(=O)C(C)Oc1ccccc1F (stereo unspecified) | inactive |  |
| CCOC(=O)CC1=C(C(=O)OCC)C(c2ccncc2)C(C#N)=C(N)O1 (stereo unspecified) | inconclusive [inhibitor, single point] |  |
| CCCCNC(=O)CSc1nc2ccccc2nc1Cc1ccccc1 | inactive |  |
| COc1ccc(N2CCOCC2)c(NC(=O)COc2cccc(C)c2C)c1 | inconclusive [inhibitor, single point] |  |
| O=C(CNc1ccc2c(c1)OCO2)N/N=C\c1cn(Cc2ccccc2)c2ccccc12 | active: 18.4 µM |  |
| COc1cc(CNc2ccc(CNc3ncn[nH]3)cc2)cc(Cl)c1OCc1ccccc1 | inconclusive [inhibitor, single point] |  |
| O=C(O)c1cccc(CSc2ncn[nH]2)c1 | inactive |  |
| Cc1ccc2c(c1)C(=O)C(=O)N2CCCOc1ccccc1C | active: 3.26 µM |  |
| COc1ccc(NC(=O)[C@@H](NC(=O)c2ccccc2)C(C)C)cc1S(=O)(=O)N1CCCCC1 | inconclusive [inhibitor, single point] |  |
| COC(=O)COc1ccc(S(=O)(=O)NCc2ccc3c(c2)OCO3)cc1 | inactive |  |
| CCOc1ccc(N=Nc2c(=O)[nH]n3c(=O)cc(C)[nH]c23)cc1 | active: 20.6 µM |  |
| CCC1COCCS(=O)(=O)N1Cc1cccc(Cl)c1 (stereo unspecified) | inconclusive [inhibitor, single point] | inconclusive: -30.7% [inhibitor] |
| CCN1CCN(c2ccc(S(=O)(=O)N3CCOCC3)cc2NC(=O)c2ccc(F)cc2Cl)CC1 | inconclusive [inhibitor, single point] |  |
| COC(=O)[C@@]12CCCCN1[C@H](c1ccc(-c3ccccc3)c(OC)c1)[C@H]1C(=O)N(C)C(=O)[C@H]12 | inconclusive [inhibitor, single point] |  |
| CN(Cc1ccc(Cl)cc1)C(=O)CCl | active: 2.31 µM |  |
| CCn1c(N2CCN(Cc3ccc([N+](=O)[O-])cc3)CC2)nc2ccccc21 | inconclusive [inhibitor, full curve, poor fit] |  |

| SMILES | Potency | activity change, negative = growth inhibition |
| --- | --- | --- |
| Oc1ccccc1N=Cc1c(O)ccc2ccccc12 | inconclusive [inhibitor, single point] |  |
| O=C(N/N=C/C(Br)=C\c1ccccc1)c1ccco1 | active: 6.51 µM |  |
| CCCCCNC(=O)N[C@H](C(=O)O)C(C)C | inactive |  |
| CC(C)CCNC(=O)c1ccc(NC(=O)N2CCCCc3ccccc32)cc1 | inactive |  |
| COc1ccc(C2c3cc(OC)c(OC)cc3CCN2S(C)(=O)=O)cc1OC (stereo unspecified) | active: 16.4 µM |  |
| O=c1[nH]c(C2CCN(S(=O)(=O)c3ccc4c(c3)OCCO4)CC2)nc2c1nnn2Cc1cccc(F)c1 | inconclusive [inhibitor, single point] |  |
| Cc1cc(Nc2nc3ccccc3nc2Cl)n(-c2ccccc2)n1 | active: 18.4 µM |  |
| Cc1nnc(SCC(=O)NNC(=O)CC#N)[nH]c1=O | inactive |  |
| CCOC(=O)c1nc(NNC(=O)c2ccc([N+](=O)[O-])cc2)sc1C | inconclusive [inhibitor, single point] |  |
| COc1ccc(N2CCN(C(=O)CNC(=O)c3cccc(Br)c3)CC2)cc1 | inconclusive [inhibitor, partial curve] |  |
| CC1(C)CNc2cc(N)ccc2S1 | inactive |  |
| Cc1cccc(C)c1NC(=S)NCCc1ccc(O)c(O)c1 | active: 16.4 µM |  |
| Cc1ccc(N2CC(NC(=O)C3CCCC3)CC2=O)cc1 (stereo unspecified) | inactive |  |
| CCOc1ccc(NS(=O)(=O)c2ccc(C(=O)NCC(c3cccs3)N3CCOCC3)cc2)cc1 (stereo unspecified) | inconclusive [inhibitor, single point] |  |
| Clc1ccccc1Cc1noc(CN2CCN(Cc3ccccn3)CC2)n1 | inactive |  |
| CCN(CC)S(=O)(=O)c1cccc(C(=O)Nc2nnc(C)s2)c1 | inactive |  |
| CCOC1=C2[C@H](c3ccc(Cl)cc3)N(S(=O)(=O)c3ccc(C)cc3)C[C@H]2n2c(=O)n(-c3ccccc3)c(=O)n2C1 | inconclusive [inhibitor, single point] |  |
| Cc1ccc(CN2CCN(C/C=C/c3ccc(F)cc3)CC2CCO)o1 (stereo unspecified) | inactive |  |
| CCCCc1ccc(NC(=O)C2CCCC2)cc1 | inconclusive [inhibitor, single point] |  |
| COc1ccc([C@H]2[C@@H](C#N)[C@H](C#N)N3CCCN23)cc1 | inactive |  |
| CC1C2CC(CC1(C)C)N(C(=O)Nc1ccc3nccnc3c1)C2 (stereo unspecified) | inconclusive [inhibitor, single point] |  |
| COc1ccc(-c2cc(C(=O)Nc3cc(OC)cc(C(=O)Nc4cccc(C(F)(F)F)c4)c3)[nH]n2)cc1 | active: 2.06 µM and active: 2.31 µM |  |
| O=S1(=O)CC=C(CSC(=S)NC2CCS(=O)(=O)C2)C1 (stereo unspecified) | active: 10.3 µM |  |
| O=C(Nc1ccccc1Cl)N1CCCN(c2nc(-c3ccccc3)ns2)CC1 | inconclusive [inhibitor, single point] |  |
| CCc1ccccc1NC(=O)c1ccc(-c2csc(C)n2)cc1 | inactive |  |
